Assay [1] has as its target T1, recombinant human TrkA/Fc chimera (R&D systems) (human, UniProt P04629-2 33-407).
T1 construct: Bought from R&D systems; also called TrkA-IgG-Fc; not shown: IgG Fc part of the bought chimera
Description: SPR (Biacore), 25-500 nM proNGF over immobilised TrkA-IgG-Fc. Background: In SPR one partner is held on a chip, and binding of the other changes the refractive index at the surface.

Assay [2] deals with T2, purified human Sortilin extracellular domain (produced in stably transfected CHO cells) (human, UniProt Q99523 78-755).
T2 construct: also called immobilized Sortilin
T2 sequence: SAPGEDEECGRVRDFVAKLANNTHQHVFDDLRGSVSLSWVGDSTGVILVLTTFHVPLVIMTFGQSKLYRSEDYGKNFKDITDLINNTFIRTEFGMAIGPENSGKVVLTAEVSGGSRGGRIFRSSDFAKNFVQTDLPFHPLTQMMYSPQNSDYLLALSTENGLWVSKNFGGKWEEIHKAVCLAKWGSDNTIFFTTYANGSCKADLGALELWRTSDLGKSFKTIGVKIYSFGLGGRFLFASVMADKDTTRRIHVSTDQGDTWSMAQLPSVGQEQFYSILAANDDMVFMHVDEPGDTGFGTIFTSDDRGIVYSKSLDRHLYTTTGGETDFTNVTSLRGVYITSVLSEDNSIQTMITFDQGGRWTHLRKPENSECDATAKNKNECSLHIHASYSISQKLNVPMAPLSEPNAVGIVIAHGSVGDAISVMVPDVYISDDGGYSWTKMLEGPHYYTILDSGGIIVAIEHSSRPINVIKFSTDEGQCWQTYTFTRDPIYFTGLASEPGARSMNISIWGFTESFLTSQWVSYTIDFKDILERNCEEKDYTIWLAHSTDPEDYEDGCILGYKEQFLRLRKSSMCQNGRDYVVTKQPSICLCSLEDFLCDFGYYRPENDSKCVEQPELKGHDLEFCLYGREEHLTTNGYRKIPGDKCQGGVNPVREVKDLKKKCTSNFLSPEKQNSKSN
Description: SPR (Biacore), 25-500 nM proNGF over immobilised Sortilin extracellular domain.

B1: Human recombinant proNGF (produced and purified in E. coli) (ligand)
chain: not shown
notes: Made as in Rattenholl et al 2001
In the case of B1, the values for the Kd in assay [1] and in assay [2] were approximately 15 nM and approximately 5 nM, respectively.

Source of the values: patent publication US20150023971A1 (H LUNDBECK A S, published 2015).
